Marks after values point to notes of the source that are not given here.
Columns and labels:
[1] = Solubility of 20 mg/mL DMT fumarate in Britton-Robinson buffer at varied pH
human brain activity = details: human volunteers; cited from earlier work
[2] = pH-stability of SPL026 (DMT fumarate) 2.5 mg/mL in 40 mM Britton-Robinson buffer (pH, HPLC assay, related substances)
[3] = In vivo pharmacokinetic profile following intramuscular dosing in rats (plasma, LC-MS/MS); details: rat; for Cmax compared with DMT (SPL026): IM dosing, p=0.005; for plasma levels at 30 mins compared with undeuterated DMT: […] (as fumarate) IM dose
[4] = nominal pH 7.5, Day 7: 7 days storage at 40° C.
[5] = nominal pH 7.5, Day 17: 10 days at 40° C. followed by 7 days at 50° C.

Q: For `CN(C)CCc1c[nH]c2ccccc12.O=C(O)/C=C/C(=O)O` [SPL026, N,N-dimethyltryptamine (DMT) fumarate salt], which “dissolution in each test formulation” value ([1]; 20 mg/mL nominal, Britton-Robinson buffer, only swirling and shaking needed) is on record?
A: The value was “very soluble”.

Q: And the “pH of each solution following overnight storage” value ([1]; 20 mg/mL, ambient conditions)?
A: Its value is “no changes from the initial pH values”.

Q: What about the “content after filtration, across pH solutions” value ([1]; 20 mg/mL, each solution incl. high pH with precipitate) of the same compound?
A: The value was “approximately the same content”.

Q: What about the “solubility / appearance of solution” value ([1]; 20 mg/mL, pH 4, 5, 6 and 7) of the same compound?
A: Its value is “clear and colourless”.

Q: And the “solubility / appearance of solution” value ([1]; 20 mg/mL, pH 8)?
A: The value was “hazy”.

Q: And the “solubility / appearance of solution” value ([1]; 20 mg/mL, pH 9 and pH 10)?
A: Its value is “contained a precipitate”.

Q: What about the “alpha power (EEG) relative to placebo” value (human brain activity) of the same compound?
A: Its value is “suppressed alpha power”.

Q: And the “delta and theta power (EEG) relative to placebo” value (human brain activity)?
A: Its value is “normalized/increased delta and theta power”.

Q: What about the “concentration by HPLC, change on stability” value ([2]; Day 7 or Day 17, pH 4 to 9 nominal) of the same compound?
A: Its value is “no significant concentration changes”.

Q: What about the pH ([2]; nominal pH 4.0, Day 7: 7 days storage at 40° C.) of the same compound?
A: Its pH is 3.84.

Q: And the pH ([2]; nominal pH 4.0, Day 17: 10 days at 40° C. followed by 7 days at 50° C.)?
A: Its pH is 3.84.

Q: What about the pH ([2]; nominal pH 4.0, Initial) of the same compound?
A: The pH was 3.86.

Q: What about the pH ([2]; nominal pH 5.0, Day 7: 7 days storage at 40° C.) of the same compound?
A: The pH was 4.55.

Q: What about the pH ([2]; nominal pH 5.0, Day 17: 10 days at 40° C. followed by 7 days at 50° C.) of the same compound?
A: Its pH is 4.52.

Q: And the pH ([2]; nominal pH 5.0, Initial)?
A: Its pH is 4.57.

Q: And the pH ([2]; nominal pH 6.0, Day 7: 7 days storage at 40° C.)?
A: The pH was 5.07.

Q: What about the pH ([2]; nominal pH 6.0, Day 17: 10 days at 40° C. followed by 7 days at 50° C.) of the same compound?
A: Its pH is 5.06.

Q: What about the pH ([2]; nominal pH 6.0, Initial) of the same compound?
A: Its pH is 5.08.

Q: What about the pH ([2]; nominal pH 6.5, Day 7: 7 days storage at 40° C.) of the same compound?
A: Its pH is 5.33.

Q: And the pH ([2]; nominal pH 6.5, Day 17: 10 days at 40° C. followed by 7 days at 50° C.)?
A: The pH was 5.31.

Q: And the pH ([2]; nominal pH 6.5, Initial)?
A: The pH was 5.33.

Q: And the pH ([2]; nominal pH 6.5 sparged N2, Day 7: 7 days storage at 40° C.)?
A: The pH was 6.18.

Q: And the pH ([2]; nominal pH 6.5 sparged N2, Day 17: 10 days at 40° C. followed by 7 days at 50° C.)?
A: Its pH is 6.09.

Q: What about the pH ([2]; nominal pH 6.5 sparged N2, Initial) of the same compound?
A: The pH was 6.12.

Q: What about the “Concentration (assay)” value ([2]; nominal pH 7.0, Day 7: 7 days storage at 40° C.) of the same compound?
A: The value was 2.54 mg/mL.

Q: What about the “Concentration (assay)” value ([2]; nominal pH 7.0, Day 17: 10 days at 40° C. followed by 7 days at 50° C.) of the same compound?
A: The value was 2.45 mg/mL.

Q: And the “Concentration (assay)” value ([2]; nominal pH 7.0, Initial)?
A: The value was 2.54 mg/mL.

Q: And the pH ([2]; nominal pH 7.0, Initial)?
A: Its pH is 6.12.

Q: What about the “Concentration (assay)” value ([2]; nominal pH 7.0 UV Light, Initial) of the same compound?
A: The value was 2.54 mg/mL.

Q: What about the “Concentration (assay)” value ([2]; nominal pH 7.0 UV Light, on completion of light stressing (200 watt hours UVA, 0.6 million luxhours)) of the same compound?
A: Its value is 2.26^a mg · mL^−1.

Q: What about the pH ([2]; nominal pH 7.0 UV Light, pH on completion of testing) of the same compound?
A: Its pH is 6.07^a.

Q: And the “Concentration (assay)” value ([2]; nominal pH 7.0 sparged N2, Day 7: 7 days storage at 40° C.)?
A: Its value is 2.54 mg/mL.

Q: What about the “Concentration (assay)” value ([2]; nominal pH 7.0 sparged N2, Day 17: 10 days at 40° C. followed by 7 days at 50° C.) of the same compound?
A: The value was 2.51 mg/mL.

Q: And the “Concentration (assay)” value ([2]; nominal pH 7.0 sparged N2, Initial)?
A: The value was 2.54 mg/mL.

Q: And the “Concentration (assay)” value [2, 4]?
A: Its value is 2.55 mg/mL.

Q: And the pH [2, 4]?
A: Its pH is 6.58.

Q: What about the “Concentration (assay)” value [2, 5] of the same compound?
A: Its value is 2.46 mg/mL.

Q: And the pH [2, 5]?
A: The pH was 6.59.

Q: And the “Concentration (assay)” value ([2]; nominal pH 7.5, Initial)?
A: Its value is 2.50 mg/mL.

Q: And the pH ([2]; nominal pH 7.5, Initial)?
A: Its pH is 6.60.

Q: What about the pH ([2]; nominal pH 8.0, Day 7: 7 days storage at 40° C.) of the same compound?
A: The pH was 6.86.

Q: What about the pH ([2]; nominal pH 8.0, Day 17: 10 days at 40° C. followed by 7 days at 50° C.) of the same compound?
A: Its pH is 6.84.

Q: What about the “Concentration (assay)” value ([2]; nominal pH 8.0, Initial) of the same compound?
A: Its value is 2.49 mg/mL.

Q: And the pH ([2]; nominal pH 8.0, Initial)?
A: Its pH is 6.87.

Q: What about the pH ([2]; nominal pH 9.0, Day 7: 7 days storage at 40° C.) of the same compound?
A: Its pH is 7.72.

Q: And the pH ([2]; nominal pH 9.0, Initial)?
A: The pH was 7.71.

Q: What about the “concentration over 17 days” value ([2]; solutions having a nominal pH≥7) of the same compound?
A: The value was “decreased”.

Q: With `O=C(O)/C=C/C(=O)O.[2H]C([2H])(Cc1c[nH]c2ccccc12)N(C)C` [SPL028i, α,α,-bis-deuterium-N,N-dimethyltryptamine fumarate salt] as the compound, how does the “Cmax compared with DMT (SPL026)” value [3] read?
A: The value was “significantly higher”.

Q: What about the “increase in Cmax at 10 mg/kg dose compared to […] dose level” value ([3]; IM, p<0.05) of the same compound?
A: The value was 144%.

Q: What about the “plasma levels at 30 mins compared with undeuterated DMT” value [3] of the same compound?
A: The value was “significantly higher”.

Q: With `O=C(O)/C=C/C(=O)O.[2H]C([2H])([2H])N(C([2H])([2H])[2H])C([2H])([2H])Cc1c[nH]c2ccccc12` [SPL028viii, α,α,bis-deuterio-N,N-hexadeuterio-dimethyltryptamine fumarate salt] as the compound, how does the “Cmax compared with DMT (SPL026)” value [3] read?
A: Its value is “significantly higher”.

Q: What about the “plasma levels at 30 mins compared with undeuterated DMT” value [3] of the same compound?
A: The value was “significantly higher”.

From US20250032450A1, “[…] INHALABLE FORMULATIONS” (Cybin UK Ltd., priority 2021, published 2025)
